Results taken from PubChem BioAssay AID1671188 (National Center for Advancing Translational Sciences (NCATS), 2021).
Screen size: about 100,000 compounds; about 250 (0.25%) were called active. This list was built around the results that the source calls inconclusive (neither active nor inactive); the mix of calls is not that of the screen. The call rests on the fitted dose curve; in most records, active means well fitted inhibition curve with a large enough effect; inconclusive means small, poorly fitted or top-dose-only effect; inactive means flat fitted curve, though single readings scatter. Potencies of inconclusive entries are left out as doubtful fits.

target: Alanine aminotransferase 2 (Homo sapiens) (UniProt Q8TD30); experiment: Primary qHTS assay for inhibitors of Glutamate pyruvate transaminase 2 (GPT2); conditions: Recombinant GPT2, coupled pyruvate oxidase/HRP Amplex Red fluorescence; activity change, negative = inhibition: at 57.7 µM (top of the series) unless noted; series mostly up to 57.7 µM; further: nearly all actives have a fitted effect of over 60% in size
Sequence of UniProt Q8TD30 (Q8TD30 whole entry, looked up): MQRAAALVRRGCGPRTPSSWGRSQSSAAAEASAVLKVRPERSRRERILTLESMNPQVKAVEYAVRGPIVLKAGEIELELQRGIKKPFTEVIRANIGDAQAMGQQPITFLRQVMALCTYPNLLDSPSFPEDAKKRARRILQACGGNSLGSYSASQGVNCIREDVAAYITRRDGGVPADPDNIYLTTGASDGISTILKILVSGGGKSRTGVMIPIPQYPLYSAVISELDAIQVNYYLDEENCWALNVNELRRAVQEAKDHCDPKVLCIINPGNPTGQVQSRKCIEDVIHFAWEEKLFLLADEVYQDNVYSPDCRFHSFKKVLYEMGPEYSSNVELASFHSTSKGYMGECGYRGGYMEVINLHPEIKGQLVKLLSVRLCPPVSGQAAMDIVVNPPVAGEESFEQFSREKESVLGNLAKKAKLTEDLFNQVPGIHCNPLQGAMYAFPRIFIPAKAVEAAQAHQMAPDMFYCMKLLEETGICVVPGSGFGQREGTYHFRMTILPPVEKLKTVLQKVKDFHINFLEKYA
Outline: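 Fluorescence of coupled pyruvate oxidase/HRP/Amplex Red system (50uM Amplex, 30 min, dark) reports pyruvate formed by GPT2. Enzyme reaction: 10ng/uL GPT2, 2mM L-alanine, 250uM a-KG, 30 min room temperature, pH 7.5; 50uM AOA control.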
On the % scale 0 is the no-effect control and ±100 the full control effect; potency means the concentration at half of the fitted maximal effect; tags describe the fitted curve by direction and shape.

| Compound | Potency | activity change, negative = inhibition | outcome |
| --- | --- | --- | --- |
| COc1cncc(Nc2cnc3ccc(-c4ccc(F)cc4)nn23)c1 | inconclusive [inhibitor, single point] | – | – |
| CS(=O)(=O)N1CC2(CCN(Cc3cccc(C(N)=O)c3)CC2)Cc2ccccc21 | – | inactive: -3.83% | – |
| O=C(NC1C[C@H]2CC[C@@H](C1)N2C(=O)C1(c2ccccc2)CC1)c1ccc(F)cc1 (stereo partly specified) | – | – | inactive |
| O=C(C[C@@H]1CCNC[C@@H]1Cc1cc(-c2ccc(F)cc2)on1)N1CCC(Cc2ccccc2)CC1 | – | inactive: -2.67% | – |
| Cc1ccc2[nH]c(CN(Cc3cnn(C)c3)C3CC3)cc(=O)c2c1 | inconclusive [inhibitor, full curve, poor fit] | – | – |
| CC(=O)Nc1nc(C)c(-c2nc(N3CCCC(O)C3)no2)s1 (stereo unspecified) | – | inactive: -1.35% | – |
| COc1ccc(NC(=O)Cn2c(-c3ccc(F)cc3)nc(C)c(CCO)c2=O)cc1Cl | – | inactive: 4.06% | – |
| O=C(NCC(=O)N1CCC(Cc2ccccc2)CC1)c1ccc(-c2cccc(C(F)(F)F)c2)cc1 | – | – | inactive |
| Cc1cccc(C)c1-c1nnc2ccc(C(=O)N3CCN(C)CC3)cn12 | inconclusive [inhibitor, single point] | – | – |
| COc1ccc(NC(=O)N2CC(c3nnc(-c4ccncc4)o3)C3(CCOCC3)C2)cc1 (stereo unspecified) | inconclusive [inhibitor, single point] | – | – |
| O=C(NCC1CCOCC1)c1ccc(C(F)(F)F)cc1 | – | – | inactive |
| O=C(C1CCCN([S+](=O)([O-])c2cccc(C(F)(F)F)c2)C1)N1CCC(N2CCCC2=O)CC1 (stereo unspecified) | inconclusive [inhibitor, single point] | – | – |
| CCCC1C=CCN1C(=O)c1cc(-c2ccncc2)nc2ccccc12 (stereo unspecified) | inconclusive [inhibitor, partial curve, poor fit] | – | – |
| O=C1Nc2ccccc2CC12CCN(CC1CCCCC1)C2 (stereo unspecified) | inconclusive [inhibitor, single point] | – | – |
| COc1ccccc1-c1ccc2ncc(Nc3cc(F)cc(N4CCOCC4)c3)n2n1 | inconclusive [inhibitor, full curve, poor fit] | – | – |
| COC12CC3C(C(C)C1=CC(=O)O2)C(O)C(OC(C)=O)C1C(C)(C)C(OC(C)=O)CCC31C (stereo unspecified) | inconclusive [inhibitor, single point] | – | – |
| CSc1cccc(NC(=O)N2CCC(c3cc(-c4cccc(C)c4)n[nH]3)CC2)c1 | inconclusive [inhibitor, single point] | – | – |
| COCCN1C(=O)c2ccccc2C(C(=O)NCCC(C)C)C12CCCC2 (stereo unspecified) | inconclusive [inhibitor, single point] | – | – |
| COc1ccccc1OCc1cc(C(=O)NC[C@H]2C[C@H]3C=C[C@H]2C32CC2)n[nH]1 | inconclusive [inhibitor, single point] | – | – |
| COc1ccc(NC(=O)Cn2cccc2-c2nc(-c3ccc4c(c3)OCO4)no2)cc1 | – | – | inactive |
| CCOc1nccn2c(-c3ccc(CNc4ccc(OC)nc4)cc3)cnc12 | inconclusive [inhibitor, partial curve, poor fit] | – | – |

| Compound | Potency | activity change, negative = inhibition | outcome |
| --- | --- | --- | --- |
| O=C(C1CC1)N1CCC(c2nn(-c3ccc(F)cc3)c(=O)[nH]2)CC1 | inconclusive [inhibitor, single point] | – | – |
| Cc1cn2nc(C(=O)Nc3ccc(N(C)C)cc3)cc2c(N2CCSCC2)n1 | inconclusive [inhibitor, single point] | – | – |
| CCN(Cc1ccncc1)C(=O)C1(Oc2ccc(C)cc2)CCNCC1 | inconclusive [inhibitor, full curve, poor fit] | – | – |
| O=C(NC1CCCC1)NC1CCN(c2nc3ncccc3o2)C1 (stereo unspecified) | inconclusive [inhibitor, partial curve, poor fit] | – | – |
| Nc1ncccc1CN1CCC(CO)(CN2CCCC2)CC1 | inconclusive [inhibitor, full curve, poor fit] | – | – |
| CC(C)[C@@H](NC(=O)[C@@H]1C[C@@H](NC(=O)Cc2cccs2)CCN1C(=O)CCC(=O)O)C(N)=O | inconclusive [inhibitor, full curve, poor fit] | – | – |
| COc1ccc(-c2cc(N3CCC(NC(=O)c4cccc(F)c4)C3)n[nH]2)cc1 (stereo unspecified) | inconclusive [inhibitor, single point] | – | – |
| COCCNC(=O)[C@H]1C[C@H](Oc2ccccc2)CN1Cc1cccnc1 | – | inactive: -16% | – |
| O=C(c1ccccn1)N1CCCC2(CC(c3cccnc3)=NO2)C1 (stereo unspecified) | inconclusive [inhibitor, single point] | – | – |
| O=C(NCc1cccc(F)c1)c1nc2c(o1)CCN(CC1CCCC1)CC2 | – | – | inactive [at 88.5 µM] |
| Cc1cc(C2CC(C(=O)NCc3ccco3)CN(C(=O)c3ccccc3)C2)ccc1F (stereo unspecified) | inconclusive [inhibitor, single point] | – | – |
| CCN(CC)CCOc1ccc(Nc2ncc3cc(-c4c(Cl)cccc4Cl)c(=O)n(C)c3n2)cc1 | inconclusive [inhibitor, single point] | – | – |
| CCn1cc(CN2CCCN(S(=O)(=O)c3ccccc3)CCC(=O)NCC2)c(C)n1 | inconclusive [inhibitor, single point] | – | – |
| Cc1nc2c(c(-c3ccc(O)cc3)n1)CN(Cc1ccc(OC(F)(F)F)cc1)CC2 | inconclusive [inhibitor, partial curve, poor fit] | – | – |
| CS(=O)(=O)c1ccc(CN2CCN3C(=O)N(Cc4ccccn4)C[C@H]3C2)cc1 | – | inactive: 2.09% [at 88.5 µM] | – |
| Cc1cccc(OCC(=O)N2CCC3(CC2)NC(=O)N(c2ccccc2Cl)N3)c1 | inconclusive [inhibitor, partial curve, poor fit] | – | – |
| CC(=O)c1cc(-c2nc(C3CCOC3)no2)cs1 (stereo unspecified) | – | inactive: -8.55% | – |
| Cc1nn(C)c(C)c1S(=O)(=O)N1CCCCCCn2c(nnc2-c2ccc(F)cc2)CC1 | inconclusive [inhibitor, full curve, poor fit] | – | – |
| CN(Cc1ccc(-n2cccn2)cc1)CC1CCN(CCc2ccc(F)cc2)CC1 | – | inactive: -12% | – |
| CC(=NNC(=S)N1CCC1)c1ccccn1 | inconclusive [inhibitor, partial curve, poor fit] | – | – |
